The campaign covered roughly 45,000 compounds. About 200 (0.44%) were called active. About 7% were inconclusive and are not listed. Calls follow the shape of the dose curve; as a rule, active = well fitted activation curve with a large enough effect; inconclusive = small, poorly fitted or top-dose-only effect; inactive = no such curve, though single readings can be large or run the other way. The list shows a part of the results.

This assay can be described thus: qHTS of TDP-43 Inhibitors: NCGC Sytravon Library Screen. Also: 0% is about no effect; nearly all actives have a fitted effect of over 55% in size. To be noted: yeast TDP-43 toxicity rescue, BacTiter-Glo growth, 24 h; series mostly up to 46.1 µM; growth rescue (activation): at the top concentration. The method in brief: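 TDP-43-expressing yeast, pregrown in raffinose, seeded at OD600 0.02 in galactose medium with compound for 24 hr at 30 deg C. Growth read by BacTiter-Glo luminescence, so rescue of toxicity appears as activation.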
For `O=C1COc2ccc(S(=O)(=O)N3CCCC3)cc2N1`, the “growth rescue (activation)” value is inactive: 2.91%. To `COc1ccc(CC(=O)NNc2ncnc3c2cnn3-c2ccccc2)cc1` belongs inactive: 0.861%.

As for `COc1ccccc1N(CC(=O)NCCSCc1ccco1)S(=O)(=O)c1ccccc1`, the “growth rescue (activation)” value is inactive: -5.4%. Regarding `CSc1ccc(C(=O)NC2CCSc3ccccc32)cc1` (stereo not drawn), the “growth rescue (activation)” value was inactive: -29.2%. In the case of `Cc1ccc(-c2nnc3c4ccccc4c(C)nn23)cc1NC(=O)c1ccccc1` it was inactive: -0.64%; in that of `CC(=O)c1ccc(NC(=O)COC(=O)C2CCN(S(=O)(=O)c3cccs3)CC2)cc1`, inactive: -5.86%. In the case of `CCCC(=O)N1CCC1(C)C(=O)Nc1ccc(OC)c(OC)c1` (stereo not drawn) it was inactive: 13.8%; in that of `CN1C(=O)/C(=C\C=C2/CCCN2C)N(C)C1=S`, inactive: -2.07%. With `CCOC(=O)c1cc(C(=O)OCC)c(=O)[nH]c1C`, the “growth rescue (activation)” value is inactive: 8.59%.

Take `O=C(Nc1ccc(OC(F)(F)F)cc1)c1noc2c1CCCC2`: the “growth rescue (activation)” value is inactive: 25.2%. Take `CCOc1ccccc1C(=O)NC(C(=O)NCc1ccccc1OC)C(C)C` (stereo not drawn): the “growth rescue (activation)” value was inactive: -0.433%. Take `COc1ccccc1C(=O)N/N=C(\C)CC(=O)Nc1ccccn1`: the “growth rescue (activation)” value is inactive: -7.68%.

For the molecule `CCCCNC(=O)C1CC(=O)N(CCc2ccc(C)cc2)C1` (stereo not drawn), the “growth rescue (activation)” value is inactive: 3.62%. To `N=C1C(c2nc(-c3ccc(F)cc3)cs2)=C(O)CN1CCCN1CCOCC1` belongs inactive: 7.63%; to `Cc1ccc2c(c1)C1CN(C)CCC1N2C(=O)c1ccccc1NS(=O)(=O)c1ccc(F)cc1` (stereo not drawn), inactive: -1.89%.

Regarding `CC(NC(=O)COC(=O)c1ccc[nH]c1=O)c1ccccc1` (stereo not drawn), the “growth rescue (activation)” value was inactive: -1.88%. In the case of `c1csc(-c2nc(N3CCOCC3)c3ccccc3n2)c1` it was inactive: 10.7%; in that of `CCN1CCCC1Cn1cnc2c([nH]c3ccc(OC)cc32)c1=O` (stereo not drawn), inactive: 23.8%; in that of `O=[N+]([O-])c1cccc(C([O-])=C(C(=S)Nc2cccc3ccccc23)[n+]2ccccc2)c1`, inactive: -3.74%. Consider `O=C(COC(=O)/C=C/c1ccco1)Nc1ccc(F)cc1Cl`, for which the “growth rescue (activation)” value was inactive: 5.83%. In the case of `CCC1(C)Cc2ccccc2-c2[nH]c(=S)[nH]c(=O)c21` (stereo not drawn) it was inactive: 7.32%; in that of `NS(=O)(=O)c1ccc(NC(=O)COc2ccc(S(=O)(=O)N3CCCC3)cc2)cc1`, inactive: 5.59%.

As for `Cc1ccc(NC2CCCN(C(=O)c3cc(C(C)C)[nH]n3)C2)cc1C` (stereo not drawn), the “growth rescue (activation)” value was inactive: 11.3%. In the case of `O=C(Cn1ccc2ccccc2c1=O)NCC(=O)Nc1ccc(F)cc1F` it was inactive: 17.3%. Consider `O=C(Nc1ccc(S(=O)(=O)NCC2CCCO2)cc1)c1cnccn1` (stereo not drawn), for which the “growth rescue (activation)” value is inactive: -1.53%. For `Cc1ccc(S(=O)(=O)N2CCOCC2)cc1NC(=O)CNC1CCCC1`, the “growth rescue (activation)” value is inactive: 7.76%. As for `CCCS(=O)(=O)c1cn2cccc(N)c2c1S(=O)(=O)CCC`, the “growth rescue (activation)” value is inactive: 17.9%. As to `Cc1cc(Cl)ccc1NC(=O)CN1C(=O)NC2(CCCC2)C1=O`, the “growth rescue (activation)” value was inactive: 6.78%.

Regarding `Cc1cc(NS(=O)(=O)c2ccc(NC(=O)CSc3nc4sc(C)c(C)c4c(=O)[nH]3)cc2)no1`, the “growth rescue (activation)” value was inactive: -5.24%. For `O=C(OCc1nc2ccccc2[n+]([O-])c1C(=O)c1ccccc1)c1cccs1`, the “growth rescue (activation)” value is inactive: 20.1%. In the case of `Cc1nn(-c2ccccc2)c(C)c1NC(=O)COc1ccc(F)cc1Cl` it was inactive: -17.8%; in that of `Cc1cc(C(=O)COC(=O)c2ccco2)c(C)n1Cc1ccco1`, inactive: -1.89%. For `CCn1c(Cc2ccccc2)nnc1SCc1ccc([N+](=O)[O-])cc1`, the “growth rescue (activation)” value was inactive: 15.7%.

For `Cc1cc(C)c(S(=O)(=O)NCCc2cc3ccc(C)c(C)c3[nH]c2=O)c(C)c1`, the “growth rescue (activation)” value is inactive: 2.15%. Regarding `NNc1nccc(Nc2ccccc2C(=O)O)n1`, the “growth rescue (activation)” value is inactive: -11%. Regarding `O=C(c1ccc(Cl)cc1Cl)N1CCC(C(=O)N2CCOCC2)CC1`, the “growth rescue (activation)” value was inactive: 6.56%. `COc1ccc(CC(N)c2csc(NC(=O)NCc3ccccc3)n2)cc1` (stereo not drawn): the “growth rescue (activation)” value is inactive: 10.3%.

With `O=C(Oc1cccc(C(=S)N2CCOCC2)c1)c1ccccc1`, the “growth rescue (activation)” value was inactive: 25.4%.

Take `CCOC(=O)c1cc(-c2cccc([N+](=O)[O-])c2)on1`: the “growth rescue (activation)” value is inactive: -1.76%. In the case of `COc1ccccc1-n1cnnc1SCC(=O)Nc1cccc(S(N)(=O)=O)c1` it was inactive: 0.617%; in that of `CCOCCCNC(=S)N1CCN(C(=O)C(=O)Nc2ccc(C(=O)OC)cc2)CC1`, inactive: 20%; in that of `COc1ccc(CN2CCNC(=O)C2CC(=O)N2CCc3ccccc3C2)c(OC)c1` (stereo not drawn), inactive: -15.5%.

As to `Cc1ccc(CNC(=O)CN2C(=O)NC3(CCCC3)C2=O)cc1`, the “growth rescue (activation)” value is inactive: -4.78%. In the case of `C=CCn1c(-c2cccc(S(=O)(=O)N(CC)CC)c2)n[nH]c1=S` it was inactive: -2.1%. To `NNC(=O)CNS(=O)(=O)c1ccc([N+](=O)[O-])cc1` belongs inactive: -7.26%; to `Cc1ccc(N/C=C/C(=O)c2cccs2)cc1C`, inactive: -8.8%. With `NS(=O)(=O)c1ccc(CCNC(=O)CNC(=O)c2ccccc2Br)cc1`, the “growth rescue (activation)” value is inactive: 8.42%.

For `COC(=O)N/N=C/c1cc(Br)ccc1O`, the “growth rescue (activation)” value was inactive: 10.2%. As to `Cn1c(CC(=O)Nc2ccccc2Cl)nnc1SCC(=O)Nc1nncs1`, the “growth rescue (activation)” value was inactive: -7.02%. On to `COc1ccc(NS(=O)(=O)c2ccc(NS(=O)(=O)c3cccs3)cc2)cc1`, for which the “growth rescue (activation)” value was inactive: 11.8%. For `CS(=O)(=O)Nc1cccc(-c2cc(NC=O)c3ncc(-c4ccc(F)c(Cl)c4)n3c2)c1`, the “growth rescue (activation)” value was inactive: 7.32%.

For the molecule `O=C(NCc1ccccc1Cl)C1CCN(C(=O)c2ccco2)CC1`, the “growth rescue (activation)” value is inactive: -6.75%. In the case of `COc1ccc(S(=O)(=O)N2CCOCC2)cc1Br` it was inactive: 22.4%.

These data come from PubChem BioAssay AID1347073 (National Center for Advancing Translational Sciences (NCATS), 2019).
